# According to ChEMBL document CHEMBL4888484, “Replenishing the malaria drug discovery pipeline: Screening and hit evaluation of the MMV Hit Generation Library 1 (HGL1) against asexual blood stage Plasmodium falciparum ,using a nano luciferase reporter read-out” (2022):
# Several values for one entry are separate records, joined by “and”; a condition that tells them apart may be missing. Equal values may be shown once. In all, about 150,000 compounds went through this assay and about 540 (0.36%) showed an effect of 50% or more. The list shows a part of the results.
# Tested on: Plasmodium falciparum
# Test: Primary screen in NF54 nanoGlo assay, in single point, at 2uM, 72h; a lower Z score goes with more inhibition
# Format: functional, Erythrocyte
# Conditions: timepoint 72 hour
SMILES,% Inhibition,Z score,Z score (2 µM)
COc1ccc(C[C@@](C)(CO)NC(=O)c2cccn(C3CC3)c2=O)cc1,-6%,0.98,
Cc1nc(-c2nnn(-c3ccc(F)cc3)c2C)sc1C(=O)NCc1ccccc1,-5%,0.91,
O=C(NCc1ccc(Cl)s1)[C@H]1CCC(=O)N(C2CCCCCC2)C1,-2%,0.31,
CCCc1cc(C(=O)NC2CCN(C3CCS(=O)(=O)CC3)CC2)[nH]n1,-14%,1.45,
Cc1cc(N(C)Cc2cnn(C)c2)ncc1Br,8%,-0.96,
Cc1cc(CN[C@H]2CCc3cn[nH]c3C2)c2c(n1)CCCC2,-2%,0.33,
Clc1ccccc1CNCC#Cc1ccccc1,31%,-0.57,
COc1ccc(-c2cc(C(=O)NC[C@H]3CCCO3)on2)cc1OC,-1%,0.2,
CO[C@@]1(C)C[C@@H](O)C12CCN(C(=O)c1scc3c1CCCC3)CC2,11%,-1.93,
Cc1ccc(C(=O)CCC(=O)NCC2(c3ccc4c(c3)OCO4)CCOCC2)cc1C,-9%,1.68,
CC(=O)Nc1cccc(CN(CCC(N)=O)c2ccc(F)cc2)c1,-5%,0.59,
CC(C)(C)c1nnc(CNC(=O)[C@@H]2CCCc3ccccc32)s1,-6%,0.61,
COc1ccc(-c2nn(-c3ccccc3F)cc2CN(C)Cc2nccs2)cc1,-18%,1.96,
FC(F)(F)c1cccc(N2CCN(c3c4c(nc5ncnn35)CCCC4)CC2)c1,-2%,0.24,
C[C@H]1CCCN(Cc2ccccc2-c2nc(CC(=O)O)cs2)C1,-11%,1.43,
CCC(=O)N[C@@H]1c2ccccc2C2(CCN(C(=O)Cc3ccsc3)CC2)[C@H]1OCCOC,-13%,2.02,
CCC[C@H]1C(=O)NCCN1C(=O)c1cn(CCOC)nn1,-12%,1.64,
O=C(Nc1cc(NS(=O)(=O)c2cccc(F)c2)ccc1F)C1CCCCC1,0%,0.01,
O=C(Nc1ccc2c(c1)OCO2)c1ccc(S(=O)(=O)N2CCCCCC2)cc1,-15%,2.02,
CC(C)Nc1ccc(-c2ccnn2C(C)C)nn1,-10%,1.85,
O=C(NCC1(CO)CC1)C1CC=CCC1c1nc2ccccc2s1 (stereo not given),-12%,1.22,
O=C(NCc1cc(C2CC2)on1)N1CCN(C2CCCCC2)CC1,-19%,1.7,

SMILES,% Inhibition,Z score,Z score (2 µM)
O=C(c1sccc1OC(F)F)N1CCOC2CCCCC21 (stereo not given),6%,-0.77,
CC(C)(C)OC(=O)N1CCC[C@H]1C(=O)N1CCc2sccc2C1,-6%,0.85,
CCN(CC)c1ccc(NC(=O)N[C@H]2CC(=O)N(c3ccc4c(c3)OCCO4)C2)c(C)c1,11%,-1.47,
COc1cc(CN(C(=O)c2cccc(N3CCCC3=O)c2)[C@H]2CCCCNC2=O)ccc1OCCc1ccccn1,29%,-3.64,
CC(=O)Nc1ccc(OC(=O)c2cccc(Oc3ccccc3)c2)cc1,5%,-0.98,
CS(=O)(=O)Nc1ccc(-c2cccc3[nH]ccc23)cn1,-11%,1.08,
O=C(NCCN1CCOCC1)c1cnc2c(Cl)cccc2c1O,-10%,1.33,
N#Cc1ccc(C(=O)N2CCC3(CC2)[C@H](O)C[C@@H]3OCCO)cn1,2%,-0.32,
CCC(CC#N)NCC1CCCCN(C(=O)OC(C)(C)C)C1 (stereo not given),-5%,0.52,
CCCCn1cc[n+](-c2nc3ccccc3nc2[N-]S(=O)(=O)c2ccc(Cl)cc2)c1,-5%,,0.61 and 0.76
O=c1c2ccccc2ncn1C[C@H]1CC[C@H](C(=O)NCCc2ccccn2)CC1,-11%,1.36,
CC(=O)N1CC[C@H](Oc2ccccc2-c2nc(C3CC3)no2)C1,-12%,2.3,
CC(C)c1cc(C(=O)OCCNc2cccnn2)n(C)n1,-5%,0.38,
COCCN1C[C@]2(CCCN(C(=O)c3cc(C)nc(C)n3)C2)CCC1=O,-3%,0.52,
CC(C)OCCCNC(=O)CC1CCCC1,-10%,1.15,
O=C(NC1CCCc2ccccc21)C1CC(=O)N(c2ccc(F)cc2)C1 (stereo not given),-8%,1.5,
O=C(Nc1cccnc1N1CCN(C(=O)c2cc(F)ccc2Cl)CC1)c1ccc2c(c1)OCO2,-3%,0.39,
CN(C)[C@@H]1C[C@@H](CO)N(C(=O)NCCc2ccc(F)cc2)C1,-11%,1.53,
COc1cccc(-c2cc(C(=O)Nc3ccc(N4CCC(OC)CC4)cc3)n(C)n2)c1,-18%,2.32,
CC(C)c1nnc(NC(=O)[C@H]2CC2(C)C)s1,-7%,1.35,
COc1cccc(NC(=O)c2c(-c3ccccc3)c(-c3ccccc3)n[nH]c2=O)c1,7%,-1.24,
COCCN1C[C@@H](Cc2ccc(C(=O)NC3CC3)cc2)CC1=O,12%,-1.37,

SMILES,% Inhibition,Z score,Z score (2 µM)
COCC(NC(C)C(=O)N(C)C)c1ccco1 (stereo not given),0%,0.01,
O=C(CNCc1ccco1)NC1CCCC1,-6%,0.52,
CCOC(=O)CN(CCOC)CC(=O)N(CC)c1ccccc1,-15%,1.51,
COc1ccc(NC(=O)[C@@H]2CCCN2c2ccc(OC)c(OC)c2)cc1OC,-6%,0.79,
CC(C)c1nc2cc(C(=O)NCCc3noc([C@@H]4CCCO4)n3)ccc2o1,1%,-0.08,
Fc1cccnc1N1CCC[C@H](c2nncn2C2CC2)C1,-1%,0.17,
CCc1ccccc1NC(=O)Cc1nnc(-c2cnccn2)o1,-6%,0.63,
NC(=O)C1CCN(C(=O)N2CCCCC2)CC1,-10%,1.8,
COc1nccnc1CN[C@H]1C[C@H](c2cccc(C)c2)C1,9%,-1.84,
Cc1cc(C)n(CC(=O)NCCC(C)C)c(=O)c1-c1nc(-c2ccccc2)no1,-9%,1.24,
CCOc1cccc(NCc2c(N)ncnc2OC)c1,34%,-4.6,
CN1C(C(=O)N2CCN(c3ccccc3)CC2)=CC(c2ccco2)=NS1(=O)=O,-11%,2.02,
COc1ccc(-c2nc3n(n2)C2(CCCCC2)[C@@H]2CCCC[C@@H]2N3C(=O)c2ccco2)cc1,-29%,2.51,
CN(Cc1ccc(Cl)cc1)c1nc2c(c(=O)[nH]1)CCNC2,-5%,0.86,
COCCCOC1CCN(S(=O)(=O)c2ccc(C#N)nc2)CC1,-8%,0.76,
c1cncc(CCn2ccnc2-c2c[nH]cn2)c1,-5%,0.6,
CO[C@H]1COC[C@H]1NC(=O)N1C[C@@H](C)N(CC(F)(F)F)[C@@H](C)C1,-9%,0.92,
COc1ccc(CCNC(=O)CCCO)cc1OC,-9%,1.5,
CCOC(=O)c1cc(OC(=O)Cc2ccc(OC)c(S(=O)(=O)N3CCOCC3)c2)cc(C(=O)OCC)c1,-6%,0.64,
O=C(N[C@H]1CCNC[C@@H]1O)c1cccc(-c2ccc(F)cc2Cl)c1,-11%,1.87,
COc1ccc(NC(=O)NC(Cc2ccc(F)cc2)Cc2ccc(F)cc2)cc1,3%,-0.43,
N#CC1(NS(=O)(=O)Cc2ccc(OC(F)(F)F)cc2)CC1,-17%,1.78,

SMILES,% Inhibition,Z score,Z score (2 µM)
CN(C)c1cccc(C(=O)Nc2cccc(-c3noc(C4CCCC4)n3)c2)c1,-18%,3.1,
O=C(Nc1ccccc1)N1CC[C@H]2COC(=O)N2c2ccccc2C1,27%,-3.1,
Cc1ccccc1[C@H](C(=O)N(C/C=C/c1ccccc1)CCO)N(C)C,-3%,0.36,
COc1ccc(NC(=O)c2c(C)nn(-c3ccccc3)c2C)cn1,6%,-1.12,
O=C(NCc1cnoc1-c1ccc(F)cc1)c1ccccc1,-1%,0.09,
COc1cccc(CCNS(=O)(=O)c2ccnn2C)n1,-4%,0.68,
CCOC(=O)Nc1sc(C)cc1C(N)=O,1%,-0.12,
c1ccc2oc(-c3noc([C@@H]4CCCN4C4CCOCC4)n3)cc2c1,-16%,1.68,
Cn1cc(-c2cc(F)cc3cccnc23)c(C(=O)O)n1,-18%,1.67,
CCn1nncc1CN1C(=O)N[C@](C)(c2ccc(Cl)c(Cl)c2)C1=O,0%,-0.01,
Cc1ccc2c(c1)c(C)c(C)n2C[C@@H](O)CNCc1ccccc1,35%,-3.93,
CC(=O)N(C)Cc1cc(C2=CCCN(Cc3c(C)noc3C)C2)no1,-11%,1.34,
Cc1ccc(-c2nc(-c3ccncc3)nn2C)s1,-5%,1.04,
CC1CCCN(C(=O)C2CCCCCC2)C1CN (stereo not given),-2%,0.24,
CCCCn1nc(C2CC2)nc1C1(c2ccccc2)CC1,-1%,0.12,
Cc1nc2c([nH]1)CN(C(=O)c1cn(C)c3ccccc13)CC2,-5%,0.86,
Cc1cccc(NC(=O)N2CCC(n3cc(-c4ccccc4)nn3)CC2)c1C,12%,-1.57,
CC(C)Nc1ncc(C(=O)N2CCc3c(Cl)cccc3C2)cn1,-5%,1.08,
COc1ccc(CNC(=O)Cn2ccnc2-c2ccnc(N3CCC(C)CC3)c2)cc1,1%,-0.13,
